Assay results: patent US12485299B2, “Antibody-immune agonist conjugate and applications thereof” (GENEQUANTUM HEALTHCARE (SUZHOU) CO., LTD., priority 2021, dated 2025)

Legend:
[1] = system: NUGC4 human gastric cancer cells; experiment: In vivo anti-tumor efficacy of anti-Claudin 18.2-AIAC, NUGC4 model; settings: 5 mg/kg intravenously on day 0 and 14, NUGC4 in BALB/c nude mice
Protocol: The in vivo anti-tumor efficacy of anti-Claudin 18.2-AIAC was evaluated using a NUGC4 model. One million of NUGC4 human gastric cancer cells were inoculated subcutaneously in the right flank in BALB/c nude mice to generate xenograft model. After tumor volume reaching 108 mm^3 on average, the tumor bearing mice were assigned and administered intravenously of the test anti-Claudin 18.2 conjugate (AC102-8-3-1) or the corresponding naked unmodified antibody at 5 mg/kg on day 0 and 14. The tumor volume was measured twice weekly with calipers.

[2] = system: Claudin 18.2-negative NCI-N87 parental cells and human PBMC; experiment: TNFα induction in co-culture of human PBMC with Claudin 18.2-negative NCI-N87 parental cells; type: cell-based; settings: Claudin 18.2-negative NCI-N87 parental cells:PBMC 1:5
Protocol: (§1) Human peripheral mononuclear cells were isolated from healthy blood donors using SepMate 50 and Lymphoprep (Stem Cell Technologies). The live cells was counted and the cell concentration was adjusted to 1.25×10^6/ml in RPMI1640 medium with 10% FBS. Tumor cells were detached by trypsin, and collected. The live cells was counted and the cell concentration was adjusted to 2.5×10^5/ml in RPMI1640 medium with 10% FBS. 12.5×10^4 human PBMC and 2.5×10^4 tumor cells (PBMC: tumor cells=5:1) were added into wells of 96 well plate, then the antibody or conjugate was added at indicated concentrations. The cell mixture was incubated with drugs for 18 hours, then the cell-free supernatant was collected for human TNFα ELISA.
(§2) Claudin 18.2 could also serve as an example of AIAC targets. To evaluate the activity of Claudin 18.2-targeted immunoconjugates, NCI-N87—Claudin 18.2 human gastric cancer cells overexpressing human Claudin 18.2 or parental NCI-N87 cells were co-cultured with human PBMC at a ratio of 1:5, and the test immunoconjugate (AC102-8-3-1 or AC201-1-3-1) or naked unmodified anti-Claudin 18.2 antibody at indicated concentrations were added, respectively. The isolation of human PBMC and experimental setting were similar to Effect Example 1.

[3] = system: NCI-N87-Claudin 18.2 human gastric cancer cells overexpressing human Claudin 18.2 and human PBMC; experiment: TNFα induction in co-culture of human PBMC with NCI-N87-Claudin 18.2 cells; type: cell-based; settings: NCI-N87-Claudin 18.2:PBMC 1:5; compared with antibody Ab0098
Protocol: as §1, §2

B1: AC102-8-3-1 (conjugate)
light: DIVMTQSPSSLTVTAGEKVTMSCKSSQSLLNSGNQKNYLTWYQQKPGQPPKLLIYWASTRESGVPDRFTGSGSGTDFTLTISSVQAEDLAVYYCQNDYSYPFTFGSGTKLEIKRTVAAPSVFIFPPSDEQLKSGTASVVCLLNNFYPREAKVQWKVDNALQSGNSQESVTEQDSKDSTYSLSSTLTLSKADYEKHKVYACEVTHQGLSSPVTKSFNRGECGALPETGG
heavy: QVQLQQPGAELVRPGASVKLSCKASGYTFTSYWINWVKQRPGQGLEWIGNIYPSDSYTNYNQKFKDKATLTVDKSSSTAYMQLSSPTSEDSAVYYCTRSWRGNSFDYWGQGTTLTVSSASTKGPSVFPLAPSSKSTSGGTAALGCLVKDYFPEPVTVSWNSGALTSGVHTFPAVLQSSGLYSLSSVVTVPSSSLGTQTYICNVNHKPSNTKVDKRV[human IgG1 Fc not listed]
anti-tumor activity (tumor volume) [1]: showed anti-tumor activity | TNFα production [2]: negligible induction of TNFα production at very high doses | TNFα production [3]: higher TNFα production compared to antibody Ab0098

B2: AC201-1-3-1 (conjugate)
light: DIVMTQSPSSLTVTAGEKVTMSCKSSQSLLNSGNQKNYLTWYQQKPGQPPKLLIYWASTRESGVPDRFTGSGSGTDFTLTISSVQAEDLAVYYCQNDYSYPFTFGSGTKLEIKRTVAAPSVFIFPPSDEQLKSGTASVVCLLNNFYPREAKVQWKVDNALQSGNSQESVTEQDSKDSTYSLSSTLTLSKADYEKHKVYACEVTHQGLSSPVTKSFNRGECGALPETGG
heavy: QVQLQQPGAELVRPGASVKLSCKASGYTFTSYWINWVKQRPGQGLEWIGNIYPSDSYTNYNQKFKDKATLTVDKSSSTAYMQLSSPTSEDSAVYYCTRSWRGNSFDYWGQGTTLTVSSASTKGPSVFPLAPSSKSTSGGTAALGCLVKDYFPEPVTVSWNSGALTSGVHTFPAVLQSSGLYSLSSVVTVPSSSLGTQTYICNVNHKPSNTKVDKRV[human IgG1 Fc not listed]
TNFα production [2]: negligible induction of TNFα production at very high doses | TNFα production [3]: higher TNFα production compared to antibody Ab0098

B3: Ab0098: naked unmodified anti-Claudin 18.2 antibody (light chain SEQ ID No. 21, heavy chain SEQ ID No. 22) (antibody)
heavy: QVQLQQPGAELVRPGASVKLSCKASGYTFTSYWINWVKQRPGQGLEWIGNIYPSDSYTNYNQKFKDKATLTVDKSSSTAYMQLSSPTSEDSAVYYCTRSWRGNSFDYWGQGTTLTVSSASTKGPSVFPLAPSSKSTSGGTAALGCLVKDYFPEPVTVSWNSGALTSGVHTFPAVLQSSGLYSLSSVVTVPSSSLGTQTYICNVNHKPSNTKVDKRV[human IgG1 Fc not listed]
light: DIVMTQSPSSLTVTAGEKVTMSCKSSQSLLNSGNQKNYLTWYQQKPGQPPKLLIYWASTRESGVPDRFTGSGSGTDFTLTISSVQAEDLAVYYCQNDYSYPFTFGSGTKLEIKRTVAAPSVFIFPPSDEQLKSGTASVVCLLNNFYPREAKVQWKVDNALQSGNSQESVTEQDSKDSTYSLSSTLTLSKADYEKHKVYACEVTHQGLSSPVTKSFNRGEC
modifications: Ab0098 Heavy chain; Ab0098 Light chain
anti-tumor activity (tumor volume) [1]: no anti-tumor activity
